# Results as given in the supplement of paper PMC8728848.
# Some of the results follow.
# B1: SBD-G4S3-SBD (protein)
# chain: MASIPSSASVQLDSYNYDGSTFSGKIYVKNIAYSKKVTVVYADGSDNWNNNGNIIAASFSGPISGSNYEYWTFSASVKGIKEFYIKYEVSGKTYYDNNNSANYQVSTGGGGSGGGGSGGGGSEFASIPSSASVQLDSYNYDGSTFSGKIYVKNIAYSKKVTVVYADGSDNWNNNGNIIAASFSGPISGSNYEYWTFSASVKGIKEFYIKYEVSGKTYYDNNNSANYQVST
# Legend:
# Assay in all cases: glycan array binding signal (z-score within array); higher = stronger binding
# Settings in all cases: glycan notation: IUPAC condensed, linker removed
# [1] = target: Neu5Ac(a2-3)GalNAc
# Method in brief: (§1)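 Columns mapping to the same glycan were averaged after glycan names were converted to IUPAC-condensed notation. The data come from 3228 arrays in the Consortium for Functional Glycomics database, limited to those with an available protein sequence. Binding is reported as a within-array Z-score averaged across arrays of one protein sequence and across linkers.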
# [2] = target: Neu5Ac(a2-3)GalNAc(b1-4)GlcNAc
# Method in brief: as §1
# [3] = target: Neu5Ac(a2-3)[GalNAc(b1-4)]Gal(b1-4)Glc
# Method in brief: as §1
# [4] = target: Neu5Ac(a2-3)[GalNAc(b1-4)]Gal(b1-4)GlcNAc
# Method in brief: as §1
# [5] = target: Neu5Ac(a2-3)[GalNAc(b1-4)]Gal(b1-4)GlcNAc(b1-3)GalNAc
# Method in brief: as §1
# [6] = target: Neu5Ac(a2-3)[Neu5Ac(a2-6)]GalNAc
# Method in brief: as §1
# [7] = target: Neu5Ac(a2-6)Gal
# Method in brief: as §1
# [8] = target: Neu5Ac(a2-6)Gal(b1-3)GlcNAc(b1-3)[Gal(b1-4)GlcNAc(b1-6)]Gal(b1-4)Glc
# Method in brief: as §1
# [9] = target: Neu5Ac(a2-6)Gal(b1-4)Glc
# Method in brief: as §1
# [10] = target: Neu5Ac(a2-6)Gal(b1-4)GlcNAc
# Method in brief: as §1
# [11] = target: Neu5Ac(a2-6)Gal(b1-4)GlcNAc(b1-2)Man
# Method in brief: as §1
# [12] = target: Neu5Ac(a2-6)Gal(b1-4)GlcNAc(b1-2)Man(a1-3)Man(b1-4)GlcNAc(b1-4)GlcNAc
# Method in brief: as §1
# [13] = target: Neu5Ac(a2-6)Gal(b1-4)GlcNAc(b1-2)Man(a1-3)[Gal(b1-4)GlcNAc(b1-2)Man(a1-6)]Man(b1-4)GlcNAc(b1-4)GlcNAc
# Method in brief: as §1
# [14] = target: Neu5Ac(a2-6)Gal(b1-4)GlcNAc(b1-2)Man(a1-3)[GlcNAc(b1-2)Man(a1-6)]Man(b1-4)GlcNAc(b1-4)GlcNAc
# Method in brief: as §1
# [15] = target: Neu5Ac(a2-6)Gal(b1-4)GlcNAc(b1-2)Man(a1-3)[GlcNAc(b1-4)][Neu5Ac(a2-6)Gal(b1-4)GlcNAc(b1-2)Man(a1-6)]Man(b1-4)GlcNAc(b1-4)GlcNAc
# Method in brief: as §1
# [16] = target: Neu5Ac(a2-6)Gal(b1-4)GlcNAc(b1-2)Man(a1-3)[Man(a1-6)]Man(b1-4)GlcNAc(b1-4)GlcNAc
# Method in brief: as §1
# [17] = target: Neu5Ac(a2-6)Gal(b1-4)GlcNAc(b1-2)Man(a1-3)[Neu5Ac(a2-3)Gal(b1-4)GlcNAc(b1-2)Man(a1-6)]Man(b1-4)GlcNAc(b1-4)GlcNAc
# Method in brief: as §1
# [18] = target: Neu5Ac(a2-6)Gal(b1-4)GlcNAc(b1-2)Man(a1-3)[Neu5Ac(a2-6)Gal(b1-4)GlcNAc(b1-2)Man(a1-6)]Man(b1-4)GlcNAc(b1-4)GlcNAc
# Method in brief: as §1
# [19] = target: Neu5Ac(a2-6)Gal(b1-4)GlcNAc(b1-2)Man(a1-3)[Neu5Ac(a2-6)Gal(b1-4)GlcNAc(b1-2)Man(a1-6)]Man(b1-4)GlcNAc(b1-4)[Fuc(a1-6)]GlcNAc
# Method in brief: as §1
# [20] = target: Neu5Ac(a2-6)Gal(b1-4)GlcNAc(b1-2)Man(a1-6)Man(b1-4)GlcNAc(b1-4)GlcNAc
# Method in brief: as §1
# [21] = target: Neu5Ac(a2-6)Gal(b1-4)GlcNAc(b1-2)Man(a1-6)[Gal(b1-4)GlcNAc(b1-2)Man(a1-3)]Man(b1-4)GlcNAc(b1-4)GlcNAc
# Method in brief: as §1
# [22] = target: Neu5Ac(a2-6)Gal(b1-4)GlcNAc(b1-2)Man(a1-6)[GlcNAc(b1-2)Man(a1-3)]Man(b1-4)GlcNAc(b1-4)GlcNAc
# Method in brief: as §1
# [23] = target: Neu5Ac(a2-6)Gal(b1-4)GlcNAc(b1-2)Man(a1-6)[Man(a1-3)]Man(b1-4)GlcNAc(b1-4)GlcNAc
# Method in brief: as §1
# [24] = target: Neu5Ac(a2-6)Gal(b1-4)GlcNAc(b1-2)[Neu5Ac(a2-6)Gal(b1-4)GlcNAc(b1-4)]Man(a1-3)[GlcNAc(b1-4)][Neu5Ac(a2-6)Gal(b1-4)GlcNAc(b1-2)[Neu5Ac(a2-6)Gal(b1-4)GlcNAc(b1-6)]Man(a1-6)]Man(b1-4)GlcNAc(b1-4)GlcNAc
# Method in brief: as §1
# [25] = target: Neu5Ac(a2-6)Gal(b1-4)GlcNAc(b1-2)[Neu5Ac(a2-6)Gal(b1-4)GlcNAc(b1-4)]Man(a1-3)[GlcNAc(b1-4)][Neu5Ac(a2-6)Gal(b1-4)GlcNAc(b1-4)Man(a1-6)]Man(b1-4)GlcNAc(b1-4)GlcNAc
# Method in brief: as §1
# [26] = target: Neu5Ac(a2-6)Gal(b1-4)GlcNAc(b1-2)[Neu5Ac(a2-6)Gal(b1-4)GlcNAc(b1-6)]Man(a1-6)[Neu5Ac(a2-6)Gal(b1-4)GlcNAc(b1-2)Man(a1-3)][GlcNAc(b1-4)]Man(b1-4)GlcNAc(b1-4)GlcNAc
# Method in brief: as §1
# [27] = target: Neu5Ac(a2-6)Gal(b1-4)GlcNAc(b1-3)Gal(b1-3)GlcNAc
# Method in brief: as §1
# [28] = target: Neu5Ac(a2-6)Gal(b1-4)GlcNAc(b1-3)Gal(b1-4)GlcNAc
# Method in brief: as §1
# [29] = target: Neu5Ac(a2-6)Gal(b1-4)GlcNAc(b1-3)Gal(b1-4)GlcNAc(b1-2)Man(a1-3)[Neu5Ac(a2-6)Gal(b1-4)GlcNAc(b1-3)Gal(b1-4)GlcNAc(b1-2)Man(a1-6)]GalNAc
# Method in brief: as §1
# [30] = target: Neu5Ac(a2-6)Gal(b1-4)GlcNAc(b1-3)Gal(b1-4)GlcNAc(b1-3)Gal(b1-4)GlcNAc
# Method in brief: as §1
# [31] = target: Neu5Ac(a2-6)Gal(b1-4)GlcNAc(b1-3)Gal(b1-4)GlcNAc(b1-3)Gal(b1-4)GlcNAc(b1-2)Man(a1-3)[Neu5Ac(a2-6)Gal(b1-4)GlcNAc(b1-3)Gal(b1-4)GlcNAc(b1-3)Gal(b1-4)GlcNAc(b1-2)Man(a1-6)]GalNAc
# Method in brief: as §1
# [32] = target: Neu5Ac(a2-6)Gal(b1-4)GlcNAc(b1-3)Gal(b1-4)GlcNAc(b1-3)GalNAc
# Method in brief: as §1
# [33] = target: Neu5Ac(a2-6)Gal(b1-4)GlcNAc(b1-3)Gal(b1-4)GlcNAc(b1-3)[Neu5Ac(a2-6)Gal(b1-4)GlcNAc(b1-3)Gal(b1-4)GlcNAc(b1-6)]GalNAc
# Method in brief: as §1
# [34] = target: Neu5Ac(a2-6)Gal(b1-4)GlcNAc(b1-3)Gal(b1-4)GlcNAc(b1-6)[Gal(b1-3)]GalNAc
# Method in brief: as §1
# [35] = target: Neu5Ac(a2-6)Gal(b1-4)GlcNAc(b1-3)Gal(b1-4)[Fuc(a1-3)]GlcNAc(b1-3)Gal(b1-4)[Fuc(a1-3)]GlcNAc
# Method in brief: as §1
# [36] = target: Neu5Ac(a2-6)Gal(b1-4)GlcNAc(b1-3)GalNAc
# Method in brief: as §1
# [37] = target: Neu5Ac(a2-6)Gal(b1-4)GlcNAc(b1-3)[Neu5Ac(a2-6)Gal(b1-4)GlcNAc(b1-6)]GalNAc
# Method in brief: as §1
# [38] = target: Neu5Ac(a2-6)Gal(b1-4)GlcNAc(b1-6)GalNAc
# Method in brief: as §1
# [39] = target: Neu5Ac(a2-6)Gal(b1-4)GlcNAc(b1-6)[Gal(b1-3)GlcNAc(b1-3)]Gal(b1-4)Glc
# Method in brief: as §1
# [40] = target: Neu5Ac(a2-6)Gal(b1-4)GlcNAc(b1-6)[Gal(b1-3)]GalNAc
# Method in brief: as §1
# [41] = target: Neu5Ac(a2-6)Gal(b1-4)GlcNAc6S
# Method in brief: as §1
# [42] = target: Neu5Ac(a2-6)GalNAc
# Method in brief: as §1
# [43] = target: Neu5Ac(a2-6)GalNAc(b1-4)GlcNAc
# Method in brief: as §1
# [44] = target: Neu5Ac(a2-6)GalNAc(b1-4)GlcNAc6S
# Method in brief: as §1
# [45] = target: Neu5Ac(a2-6)GlcNAc(b1-4)GlcNAc
# Method in brief: as §1
binder,measurement,setting,value
B1,glycan array binding signal (z-score),[1],-0.406
same,glycan array binding signal (z-score),[2],-0.344
same,glycan array binding signal (z-score),[3],-0.302
same,glycan array binding signal (z-score),[4],-0.046
same,glycan array binding signal (z-score),[5],1.13
same,glycan array binding signal (z-score),[6],-0.368
same,glycan array binding signal (z-score),[7],-0.372
same,glycan array binding signal (z-score),[8],-0.392
same,glycan array binding signal (z-score),[9],-0.399
same,glycan array binding signal (z-score),[10],-0.406
same,glycan array binding signal (z-score),[11],-0.375
same,glycan array binding signal (z-score),[12],-0.003
same,glycan array binding signal (z-score),[13],0.115
same,glycan array binding signal (z-score),[14],1.81
same,glycan array binding signal (z-score),[15],-0.091
same,glycan array binding signal (z-score),[16],0.556
same,glycan array binding signal (z-score),[17],-0.181
same,glycan array binding signal (z-score),[18],-0.33
same,glycan array binding signal (z-score),[19],0.912
same,glycan array binding signal (z-score),[20],-0.186
same,glycan array binding signal (z-score),[21],-0.44
same,glycan array binding signal (z-score),[22],-0.392
same,glycan array binding signal (z-score),[23],0.222
same,glycan array binding signal (z-score),[24],-0.032
same,glycan array binding signal (z-score),[25],-0.36
same,glycan array binding signal (z-score),[26],0.103
same,glycan array binding signal (z-score),[27],-0.368
same,glycan array binding signal (z-score),[28],-0.415
same,glycan array binding signal (z-score),[29],1.98
same,glycan array binding signal (z-score),[30],-0.382
same,glycan array binding signal (z-score),[31],0.419
same,glycan array binding signal (z-score),[32],-0.389
same,glycan array binding signal (z-score),[33],-0.275
same,glycan array binding signal (z-score),[34],-0.221
same,glycan array binding signal (z-score),[35],-0.376
same,glycan array binding signal (z-score),[36],-0.24
same,glycan array binding signal (z-score),[37],-0.291
same,glycan array binding signal (z-score),[38],-0.246
same,glycan array binding signal (z-score),[39],-0.241
same,glycan array binding signal (z-score),[40],-0.313
same,glycan array binding signal (z-score),[41],-0.387
same,glycan array binding signal (z-score),[42],-0.401
same,glycan array binding signal (z-score),[43],-0.413
same,glycan array binding signal (z-score),[44],-0.365
same,glycan array binding signal (z-score),[45],-0.416
